Results taken from PubChem BioAssay AID485294 (National Center for Advancing Translational Sciences (NCATS), 2010).
Screen size: about 370,000 compounds; about 150 (0.041%) were called active. The shares of active, inactive and inconclusive entries below differ from those in the screen. The call rests on the fitted dose curve; in most records, active means well fitted inhibition curve with a large enough effect; inconclusive means small, poorly fitted or top-dose-only effect; inactive means flat fitted curve, though single readings scatter. No potency is given beside an inconclusive call; the fits are too rough.

Target: Beta-lactamase (Escherichia coli (strain K12)) (UniProt P00811)
Assay: qHTS Inhibitors of AmpC Beta-Lactamase (assay with detergent); further: nearly all actives have a fitted effect of over 25% in size
Settings: AmpC hydrolysis of nitrocefin, absorbance 480 nm, 0.01% Triton; series mostly up to 114 µM
Method in brief: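 20 mM phosphate pH 7.0 + 0.01% (detergent screen) or 0.0001% Triton X-100; 5.3 nM AmpC reagent; cpd preinc 15 min RT; nitrocefin (800 uM stock) to start; A480 q20 s × 4 min; Activity was normalised to no-enzyme and no-compound control wells.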
Potency means the concentration at half of the fitted maximal effect; tags describe the fitted curve by direction and shape.

Chain of UniProt P00811 (P00811 whole entry, looked up): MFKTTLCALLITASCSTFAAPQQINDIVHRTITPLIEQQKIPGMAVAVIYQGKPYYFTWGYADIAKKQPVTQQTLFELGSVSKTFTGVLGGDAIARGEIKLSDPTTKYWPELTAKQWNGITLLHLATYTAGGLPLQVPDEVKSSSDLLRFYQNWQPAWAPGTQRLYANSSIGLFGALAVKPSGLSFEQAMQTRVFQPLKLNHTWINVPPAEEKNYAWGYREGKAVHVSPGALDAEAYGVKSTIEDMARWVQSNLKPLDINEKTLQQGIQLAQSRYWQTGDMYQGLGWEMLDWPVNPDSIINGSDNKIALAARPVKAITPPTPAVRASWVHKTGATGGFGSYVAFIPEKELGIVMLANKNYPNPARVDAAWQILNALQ

Question: How did the Potency turn out when `NCCCC[C@@H](C(=O)N1CCNCC1)n1cc([C@@H](N)CC(N)=O)nn1` was run?
Answer: inactive

Question: `O=C(Nc1ccc(NC(=O)C2CCCCC2)cn1)c1ccco1` was tested. Which Potency did it give?
Answer: inconclusive [inhibitor, partial curve]

Question: Which Potency does the source give for `O=C(O)CCCCCN1C(=O)/C(=C\c2ccncc2)SC1=S` here?
Answer: inactive

Question: With `Cc1n[nH]c(=S)n1-c1ccccc1` as the molecule, how does the Potency read?
Answer: inactive

Question: With `CCOC(=O)C1CCN(C(=O)COC(=O)c2oc3ccccc3c2C)CC1` as the molecule, how does the Potency read?
Answer: inactive

Question: Which Potency does the source give for `COc1cc(O)sc1C=Nc1ccc(Cl)cc1Cl` here?
Answer: inconclusive [inhibitor, full curve]

Question: Which Potency does the source give for `COc1cc(/C=N/Nc2cccc(C)c2)ccc1OC(=O)c1cccs1` here?
Answer: inactive

Question: With `S=c1nc(NCCc2ccccc2Cl)c2ccccc2[nH]1` as the molecule, how does the Potency read?
Answer: inactive

Question: How did the Potency turn out when `CCOC(=O)N1CCC(N2C(=O)c3ccccc3C2Nc2cc(Cl)c(OC)cc2OC)CC1` (stereo not drawn) was run?
Answer: inconclusive [inhibitor, full curve]

Question: With `NC(=S)N=Nc1c(O)n(CCCl)c2ccccc12` as the molecule, how does the Potency read?
Answer: inactive

Question: How did the Potency turn out when `COC(=O)c1[nH]c2ccc(Br)cc2c1NC(=O)C(C)N1CCN(C2CCCCC2)CC1` (stereo not drawn) was run?
Answer: inactive

Question: For `CCCCn1c(N)c(N(CC(C)C)C(=O)c2oc3ccc(OC)cc3c2C)c(=O)[nH]c1=O`, which Potency is on record?
Answer: inconclusive [inhibitor, single point]

Question: With `CCOC(=O)c1sc2nc(CSc3ccccc3)nc(N3CCC(C(N)=O)CC3)c2c1C` as the molecule, how does the Potency read?
Answer: inactive

Question: How did the Potency turn out when `COc1ccc(NC(=O)CN2CCN(S(=O)(=O)c3cccs3)CC2)cc1Cl` was run?
Answer: inconclusive [inhibitor, full curve, poor fit]

Question: For `O=C(COC(=O)c1ccccc1)c1ccc(Br)cc1`, which Potency is on record?
Answer: inactive

Question: How did the Potency turn out when `CC(Cc1ccccc1Sc1ccccc1O)N(C)C` (stereo not drawn) was run?
Answer: inconclusive [inhibitor, full curve, poor fit]

Question: With `CCOc1ccc(NC(=O)CSc2nccn2Cc2ccco2)cc1` as the molecule, how does the Potency read?
Answer: inactive

Question: How did the Potency turn out when `Cc1noc(C)c1CN(C(=S)NC1CC2CCC1C2)c1ccccc1` (stereo not drawn) was run?
Answer: inactive

Question: For `CCCC(=O)Nc1ccc(C(=O)Nc2nc(CC(=O)OCC)cs2)cc1`, which Potency is on record?
Answer: inconclusive [inhibitor, full curve, poor fit]

Question: Which Potency does the source give for `N[C@H](CSCc1ccccc1)C(=O)Nc1ccc([N+](=O)[O-])cc1` here?
Answer: inactive

Question: `CSc1nc(-c2ccccc2F)c(C#N)c(=O)n1C` was tested. Which Potency did it give?
Answer: inconclusive [inhibitor, full curve, poor fit]

Question: Which Potency does the source give for `COc1ccccc1N1CCN(C(=S)Nc2ccccc2)CC1` here?
Answer: inconclusive [inhibitor, full curve, poor fit]

Question: How did the Potency turn out when `CCCCc1cc(=O)oc2cc(C)cc(OCC(=O)NC(Cc3ccc(Cl)cc3)C(=O)O)c12` (stereo not drawn) was run?
Answer: inconclusive [inhibitor, full curve, poor fit]

Question: With `CCOC(=O)N1CCN(S(=O)(=O)c2ccc(OC)c(Cl)c2Cl)CC1` as the molecule, how does the Potency read?
Answer: inconclusive [inhibitor, full curve, poor fit]

Question: With `N#Cc1c(N2CCCCC2)nc(N)c2c(N)nc3c(c12)CC(c1ccccc1)O3` (stereo not drawn) as the molecule, how does the Potency read?
Answer: inconclusive [inhibitor, partial curve]

Question: Which Potency does the source give for `CCCn1c(NCc2ccc(N(C)C)cc2)nc2ccccc21` here?
Answer: inconclusive [inhibitor, full curve]

Question: `Cc1nc(C)c(C(=O)Nc2ccccc2)s1` was tested. Which Potency did it give?
Answer: inconclusive [inhibitor, partial curve]

Question: How did the Potency turn out when `CC1=CC(C)(C)NC(=S)N1c1ccc(C)c(C)c1` was run?
Answer: inconclusive [inhibitor, partial curve]

Question: For `COCCN(C(=O)Nc1ccccc1OC)c1nc2ccccc2s1`, which Potency is on record?
Answer: inactive

Question: How did the Potency turn out when `CCOC(=O)COc1cc(-n2c(=S)[nH]c3ccccc3c2=O)c(Cl)cc1Cl` was run?
Answer: inconclusive [inhibitor, full curve, poor fit]

Question: `O=C(N/N=C/c1cccc(O)c1)c1ccccc1O` was tested. Which Potency did it give?
Answer: inactive

Question: Which Potency does the source give for `CC(=O)c1c(C)[nH]c(C(=O)Nc2ccc(Cl)cc2)c1C` here?
Answer: inconclusive [inhibitor, full curve, poor fit]

Question: `O=C(COC(=O)[C@@H]1CCCN1S(=O)(=O)c1ccc(Cl)cc1)NC1CCS(=O)(=O)C1` (stereo partly drawn) was tested. Which Potency did it give?
Answer: inconclusive [inhibitor, full curve, poor fit]

Question: With `COC(=O)Nc1ccc(N=C(N)N[N+](=O)[O-])cc1` as the molecule, how does the Potency read?
Answer: inactive

Question: For `COc1ccc(NS(=O)(=O)c2cccc(C(=O)N/N=C/c3ccc(O)cc3)c2)cc1`, which Potency is on record?
Answer: inconclusive [inhibitor, single point]

Question: For `Cc1ccc(-n2c(SCC(=O)Nc3ccc4c(c3)OCO4)nnc2-c2ccoc2C)cc1`, which Potency is on record?
Answer: inconclusive [inhibitor, full curve, poor fit]

Question: For `CCCCS(=O)(=O)c1sc2nc3c(cc2c1N)CCCC3`, which Potency is on record?
Answer: inconclusive [inhibitor, full curve, poor fit]

Question: How did the Potency turn out when `Cc1nc(NC(=O)CN2CCOCC2)sc1-c1ccccc1` was run?
Answer: inactive

Question: How did the Potency turn out when `CC12COC3(C(=O)Nc4ccc([N+](=O)[O-])cc4)CC1CCC32C` (stereo not drawn) was run?
Answer: inconclusive [inhibitor, single point]

Question: With `Cn1c(SCc2ccc(Cl)cc2)nc(C(F)(F)F)cc1=O` as the molecule, how does the Potency read?
Answer: inconclusive [inhibitor, single point]

Question: With `COc1ccc(-c2nc(CSCC(=O)NCc3ccc4c(c3)OCO4)c(C)o2)cc1OC` as the molecule, how does the Potency read?
Answer: inactive

Question: `COc1ccccc1C(=O)Nc1ccnn1C1CCN(Cc2cnn(C)c2C)CC1` was tested. Which Potency did it give?
Answer: inactive

Question: For `COCCCC1CCN(C(=O)c2cc(COc3ccc(C)nc3)on2)CC1`, which Potency is on record?
Answer: inactive

Question: `Cc1nc(NC(=O)C23CCC(C)(C(=O)O2)C3(C)C)sc1C` (stereo not drawn) was tested. Which Potency did it give?
Answer: inconclusive [inhibitor, single point]

Question: Which Potency does the source give for `CC(NC(=O)c1cccnc1)C(=O)O` (stereo not drawn) here?
Answer: inactive

Question: Which Potency does the source give for `COCC(O)CSc1nc(C)[nH]c1[N+](=O)[O-]` (stereo not drawn) here?
Answer: inconclusive [inhibitor, full curve, poor fit]

Question: `COc1ccc(CNC(=O)/C=C/c2ccc(S(=O)(=O)N3CCOCC3)cc2)cc1` was tested. Which Potency did it give?
Answer: inconclusive [inhibitor, full curve]

Question: Which Potency does the source give for `COc1ccc(-c2nc(CS(=O)CC(=O)NCc3ccco3)c(C)o2)cc1` (stereo not drawn) here?
Answer: inconclusive [inhibitor, partial curve, poor fit]
